This is an account of results in PubChem BioAssay AID485344 (National Center for Advancing Translational Sciences (NCATS), 2010).

Each structure is given as a SMILES string. Out of some 340,000 compounds screened, about 6,900 (2%) were called active. No stated cut-off is given here; in the data, active means inhibition above about 30%; inactive means below that, where a call was filed. The entries are a selection whose mix differs from that of the whole data set. Entries without a call were filed so in the source.

Chain of UniProt P14416 (P14416 whole entry, looked up): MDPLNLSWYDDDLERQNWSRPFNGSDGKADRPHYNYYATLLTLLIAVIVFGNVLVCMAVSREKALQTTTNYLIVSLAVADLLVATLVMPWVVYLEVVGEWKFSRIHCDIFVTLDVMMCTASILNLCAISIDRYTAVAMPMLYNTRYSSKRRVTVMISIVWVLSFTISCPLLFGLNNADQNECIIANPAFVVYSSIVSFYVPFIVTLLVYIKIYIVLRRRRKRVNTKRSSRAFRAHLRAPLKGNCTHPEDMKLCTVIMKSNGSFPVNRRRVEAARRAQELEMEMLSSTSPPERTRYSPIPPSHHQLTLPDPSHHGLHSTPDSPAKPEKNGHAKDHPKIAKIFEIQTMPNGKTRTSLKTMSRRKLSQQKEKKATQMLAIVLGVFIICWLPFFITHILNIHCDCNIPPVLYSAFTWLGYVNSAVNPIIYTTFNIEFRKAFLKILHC

In the test the target is D(2) dopamine receptor (Homo sapiens) (UniProt P14416). Description: HTS Assay for Allosteric Antagonists of the Human D2 Dopamine Receptor: Primary Screen for Antagonists. Further: 0% is about no effect. The conditions noted are these: HEK293 TREx D2 cells, calcium flux, dopamine EC80; at 10 µM; stronger effect = higher value. From the text:
NIH Chemical Genomics Center [NCGC] NIH Molecular Libraries Probe Centers Network [MLPCN] MLPCN Grant: NS064831-01 Assay Submitter (PI): David Sibley Dopamine receptors (DARs) are involved in the etiology and/or therapy of a number of neuropsychiatric and endocrine disorders. For instance, all receptor-based antiparkinsonian drugs work via stimulating the D2 DAR subtype whereas all FDA-approved antipsychotic agents are antagonists of this receptor. […] There are three different types of allosteric modulators that we are seeking, two of which will stimulate or augment receptor signaling, allosteric agonists and potentiators, while the third, allosteric antagonists, will attenuate receptor signaling. The present primary screening assay measures compound antagonism after an EC80 addition of dopamine by tracking calcium flux in a […], inducible Hek293 Trex D2 cell line.
Freshly passaged cells are plated in 1536 well black, clear bottom plates at a density of 4000 cells/well in 3 ul of complete media containing 1x tetracycline inducer. After an overnight incubation at 30 C in 5% CO2, cells are loaded with 2 ul of the no wash Calcium Assay Kit (ABD Bioquest) and incubated at room temperature for 30 to 90 minutes. Agonist read: A 10 cycle (1 second/cycle) baseline measurement is taken and then the FDSS online 1536 pintool delivers 23 nl of compound library (as well as dopamine controls) to the plate. The plate is measured for kinetically at 1 cycle/sec for 180 seconds. Following the 180 second read, 1 ul of an EC80 (negative modulation assay) is delivered by an onboard pipette head. Measurements are taken kinetically for an additional 180 seconds.
For `Cc1ccc(-c2nc3nc(C)cc(C)n3c2Nc2ccc3c(c2)OCCO3)cc1`, the inhibition was 5.24%.

As for `CCOc1ccc(NC(=O)Cn2c(=O)n(Cc3nc(-c4ccccc4)no3)c(=O)c3cc4c(cc32)OCO4)cc1`, the inhibition is 2.15%. With `CC(=O)c1ccc(NC(=O)c2nc(-c3ccccc3)n(-c3ccc(Cl)cc3)n2)cc1`, the inhibition is 11.2%.

With `O=C(/C=C/c1ccc2c(c1)OCO2)NCCSCc1c(Cl)cccc1Cl`, the inhibition was active: 33.8%. In the case of `CC1CCN(c2oc(-c3ccc(COc4ccccc4)o3)nc2C#N)CC1`, the inhibition was 5.34%. Regarding `COc1cccc(NC(=O)CSC2=C(C#N)C(c3ccco3)C3=C(CCCC3=O)N2)c1` (configuration not stated), the inhibition was active: 36.9%. Under `CCc1ccc(-n2c(N3CCN(c4cccc(Cl)c4)CC3)nc3ccccc3c2=O)cc1` stands -10%; under `COc1ccccc1C(=O)NC1CC2CCC(C1)N2Cc1ccccc1` (configuration not stated), active: 89.4%; under `CC(C)OCCCNC(=O)C(=O)Nc1ccc2nc3n(c(=O)c2c1)CCCCC3`, 2.72%.

Regarding `Fc1cc(F)c2ncc3c(-c4ccccc4)nn(-c4cccc(Cl)c4)c3c2c1`, the inhibition is -1.18%. On to `Cc1ccccc1NC(=O)C1CCN(C(=O)c2cnn(-c3ccccc3)c2-n2cccc2)CC1`, for which the inhibition is 3.68%. `Cc1cccc(Cn2c(=O)n(Cc3ccccc3)c(=O)c3oc4ccccc4c32)c1`: the inhibition was found to be 1.8%. As for `Cc1ccc(Sc2ccc(N3CCC(C(=O)Nc4ccc(C)c(F)c4)CC3)nn2)cc1`, the inhibition amounted to 3.72%.

Regarding `COc1cc(NC(=O)N(Cc2ccco2)C2CCN(C(C)=O)CC2)cc(OC)c1OC`, the inhibition was -13%. Consider `Cc1cccc(-c2nc3nc(C)cc(NCc4ccccc4Cl)n3n2)c1`, for which the inhibition amounted to 8.56%. Under `COc1ccc(-c2cc(C(F)(F)F)nc(-n3nc(C(F)(F)F)cc3C)n2)cc1` stands 1.89%. Turning to `Cc1cc(C)c(Cn2c3ccccc3c3cnn(CC(=O)NCc4ccccn4)c(=O)c32)c(C)c1`, the inhibition was -1.15%.

For `CC(C)OC(=O)c1cccnc1N1CCN(c2ccc(F)cc2)CC1`, the inhibition is active: 32.7%. Take `Cc1ccc(NC(=O)CCNC(=O)c2ccco2)cc1Cl`: the inhibition was active: 35.9%. Under `O=C(CCS(=O)(=O)c1ccc(Br)cc1)Nc1ccc(Cl)c(C(F)(F)F)c1` stands 3.52%; under `COc1ccccc1CCNC(=O)C(=O)NCC(c1cccs1)S(=O)(=O)c1ccccc1` (configuration not stated), -9.79%. `CCOC(=O)c1cccc(NC(=O)c2cn(-c3cccc(OC)c3)c(=O)c3ccccc23)c1`: the inhibition is -0.0645%. Under `COc1cccc(NC(=O)Cn2c(=O)n(CC(=O)NCc3ccc(C)cc3)c(=O)c3sccc32)c1` stands -23.9%; under `Cc1ccc(C(c2ccccc2)c2c(C)[nH]c3ccccc23)s1` (configuration not stated), 7.89%; under `Cc1ccc2nc(-c3c[nH]c4ccccc34)c(Nc3ccccc3C)n2c1`, 1.33%. For `Cc1ccc(-c2cc(NC(=O)COc3ccc(Cl)c(C)c3)on2)cc1`, the inhibition was 14.6%. For the molecule `Cc1cc(C)c(NC(=O)CN2C(=O)c3cccnc3Oc3ccc(C)cc32)c(C)c1`, the inhibition was found to be 13.8%. Next, `Cc1cccc(CNc2ccc(C(CC(N)=O)NC(=O)Cc3cccc4ccccc34)cc2[N+](=O)[O-])c1` (configuration not stated): active: 33.8%; `Cc1ccc(/C=C/C(=O)Nc2ccc(S(N)(=O)=O)cc2)o1`: 5.45%; `O=C(Nc1ccnn1C1CCN(C/C=C/c2ccccc2)CC1)c1ccccc1Cl`: active: 79.7%. `O=C(NCc1cccnc1)C(=O)NCC(c1cccnc1)N1CCN(c2ccccc2F)CC1` (configuration not stated): the inhibition stood at 20.2%.

In the case of `O=C(Cn1cc(C(=O)c2ccco2)c2ccccc21)Nc1ccccc1Cl`, the inhibition was -0.433%.

On to `O=C(C1CCN(S(=O)(=O)c2cccc3nonc23)CC1)N1CCN(c2ccccc2F)CC1`, for which the inhibition stood at 3.08%. Take `Cc1cc(C)c2c(=O)cc(C(=O)Nc3ccc(S(=O)(=O)N(C)Cc4ccccc4)cc3)oc2c1`: the inhibition turned out to be 4.05%. `Cc1nn(-c2ccc(F)cc2)c(-n2cccc2)c1C(=O)NCCCN1CCN(c2cccc(Cl)c2)CC1`: the inhibition is -13.4%. Next, `CCOC(=O)c1sc2ccccc2c1S(=O)(=O)N1CCN(c2cccc(OC)c2)CC1`: 0.631%; `CCOC(=O)c1sc2ccccc2c1S(=O)(=O)N1CCN(c2cccc(C)c2C)CC1`: -10.5%. With `Cc1cc(=O)n2nc(N3CCC(C(=O)NCc4ccccc4)CC3)sc2n1`, the inhibition is 7.5%. For `COCCn1nnnc1SCC(=O)c1ccc(F)cc1`, the inhibition was active: 38.8%. With `CCc1ccc(S(=O)(=O)Nc2cccc(-c3ccc(N4CCC(C)CC4)nn3)c2)s1`, the inhibition was -19.8%. With `Cc1cc(NC(=O)NCc2ccc3c(c2)CCN3C(=O)c2ccccc2)ccc1Br`, the inhibition was -8.98%.

For `CCOc1ccc(S(=O)(=O)c2cn(Cc3ccccc3)c3ccc(OCC)cc3c2=O)cc1`, the inhibition was determined as 7.93%.

`CC(C)(C)OC(=O)N1CCC(c2c(C(=O)NCc3ccco3)cnn2-c2ccccc2)CC1`: the inhibition was 6.34%. Regarding `CCc1ccc(CNC(=O)c2cnc3sc(N4CCCCC4)nn3c2=O)cc1`, the inhibition came out at 6.16%.

In the case of `O=C(NC1CC2CCC(C1)N2Cc1ccccc1)c1ccccc1Cl` (configuration not stated), the inhibition is active: 74.5%.

With `COc1ccc2cc(C(=O)NCc3ccc4c(c3)CCN4C(=O)c3ccccc3)[nH]c2c1`, the inhibition was 10.4%.

With `CCn1c(=O)cc(SCC(=O)NCc2ccccc2OC)c2ccccc21`, the inhibition stood at 8.13%.

One may read the inhibition as the relative decrease from the control value, in per cent.
